Measured values: patent publication US12006361 (SONNET BIOTHERAPEUTICS, dated 2024)
Values belong to the binder of their own block, whether it stands above or below them.

Experiments:
mouse serum albumin [1] = molecular target: T1, mouse serum albumin (mouse, UniProt P07724 25-608); experiment: ELISA, plate coated with MSA; culture medium of HEK293 clones from 24-well plates, concentration not given
T1 construct: also called MSA
Source text: Figure 5B: Figure 8A: FIG. 8A and FIG. 8B depicts studies assessing the expression level (FIG. 8A) and ability of HEK293 cell-produced IL-15-ABD K86R and K86A variants and IL-15Rα/IL-15-ABD to bind mouse serum albumin (FIG. 8A) and IL-15Rα (FIG. 8B). A) ELISA readout for IL15-ABD binding to mouse serum albumin (MSA) of 12 WT IL15-A10m3 clones (WT), 12 IL-15Rα/IL-15-A10m3 clones (IL15Ra), 6 IL-15 K86A-A10m3 mutant clones (K86A) and 6 IL-15 K86R-A10m3 mutant clones (K86R). Culture medium of each sample well from 24-well plates was added to ELISA plates coated with MSA. B) ELISA for binding of IL-15 to IL-15 receptor alpha (IL-15Rα) which was coated on the plate was used to confirm that K86A (clone A3, yellow star) and K86R (clone R6, green star) mutations had no impact on the binding activity of IL-15 to IL-15Rα. The internal IL-15Rα in IL-15Rα-IL-15-A10m3 (clone alpha1, red star) could bind to internal IL15 and thus block its binding to IL-15Rα coated on the plate. 10 ug/ml of E. coli produced WT IL-15-A10m3 was used as positive control. Figure 8B: Figure 9A: FIG. 9A-FIG. 9C depicts the scaled-up production of IL15K86R-A10m3 clone #6. […]

mouse serum albumin [2] = molecular target: T1, mouse serum albumin; experiment: Octet (biolayer interferometry), pH 7.2, table headed 'Octet-hIL15R6-A10m3 B01 MSA pH7.2 1-13-2016'; same value in all three rows (138.9, 69.4 and 34.7 nM); Full R^2 0.986743
mouse serum albumin [3] = molecular target: T1, mouse serum albumin; experiment: Octet (biolayer interferometry), pH 7.2; printed under the table
human TGFβ1 = molecular target: T2, human TGFβ1 (human, UniProt P01137 part only); experiment: binding ELISA, purified scFv
T2 construct: also called hTGFβ1; hTGFβ-1

mouse TGFβ1 = molecular target: T3, mouse TGFβ1 (mouse, UniProt P04202 part only); experiment: binding ELISA, purified scFv
T3 construct: also called mTGFβ1; mTGFβ-1

Sequence of human TGFβ1 (P01137 279-390 limits assumed): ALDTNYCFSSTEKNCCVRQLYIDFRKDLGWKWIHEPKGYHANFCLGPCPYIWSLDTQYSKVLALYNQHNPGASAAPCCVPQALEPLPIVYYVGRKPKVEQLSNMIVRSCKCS
Sequence of mouse TGFβ1 (P04202 279-390 limits assumed): as the sequence (P01137 279-390 limits assumed) above, with A75S counted along it

binding result (mouse serum albumin [1]): binds
B1: IL-15 K86A-A10m3 (other)
chain: [about 120 residues with changes not printed]GGGGSGGGGSGGGGSGGGGSGGGGSEVQLVESGGGLIQPGRSLRLSCAASGITFDDAVMHWVRQAPGKGLEWVAGISSNSGYIGYADSVKGRFTISRDNAKNSLYLQMNRLRAEDTAVYYCVKGLYSNPRGGAFDIWGQGTMVTVSSASTGGGGSGGGGSGGGGSVHSSYVLTQPPSVSVAPGQTATITCGGNNIGTKSVHWYQQKPGQAPVLVVYADSDRPSGIPERVSGSNSGNTATLTISRVEAGDEADYYCQVWDSRSDHLWVFGGGTKLTVLG
modifications: Made in HEK293, so probably N-glycosylated; the letters do not carry this.
notes: Produced in HEK293 cells; also called IL-15-ABD K86A; clone A3

Kd (mouse serum albumin [2]): 28.9 nM
Kd (mouse serum albumin [3]): 28.9 nM
B2: IL-15 K86R-A10m3 (other)
chain: [about 120 residues with changes not printed]GGGGSGGGGSGGGGSGGGGSGGGGSEVQLVESGGGLIQPGRSLRLSCAASGITFDDAVMHWVRQAPGKGLEWVAGISSNSGYIGYADSVKGRFTISRDNAKNSLYLQMNRLRAEDTAVYYCVKGLYSNPRGGAFDIWGQGTMVTVSSASTGGGGSGGGGSGGGGSVHSSYVLTQPPSVSVAPGQTATITCGGNNIGTKSVHWYQQKPGQAPVLVVYADSDRPSGIPERVSGSNSGNTATLTISRVEAGDEADYYCQVWDSRSDHLWVFGGGTKLTVLG
modifications: Made in HEK293, so N-glycosylated; the letters do not carry this.
notes: Produced in HEK293 cells (glycosylated); also called IL-15-ABD K86R; IL-15R-A10m3

binding result (human TGFβ1): binds
binding result (mouse TGFβ1): binds
B3: 4D9 (scFv)
scFv: [about 100 residues not printed]EISGSYLGLVAFDIWGQGTMVTVSSASTGGGGSGGGGSGGGGSVHSSYVLTQPLSVSVAPGQTARMTCGGDNVGAKSVHWYQQKPGQAPVLLIYYDHDRPSGIPERFSGSNSGNTATLTITRVEAGDEADYYCQVWDPSSDVVFGGGTQLTVLGLGG
notes: also called anti-TGFβ-1 scFv 4D9
